# Test results published in the supplement of paper PMC10037445.
# Whole data set: some 2,900 compounds, median “IRF Lucia reporter activity, fold change vs agonist alone” near 0.9, cut for the highest 2% near 2.8. The list shows a part of the results.
# Experiments:
# [1] = system: RAW-Dual; experiment: IRF Lucia reporter activity, fold change vs agonist alone; cytotoxicity flag (confluency mask): cytotoxic (confluency <70% of control); higher = enhanced IRF activity
# In short: (§1)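 Library stock was pin-tooled at 50 nL into 384-well plates of RAW-Dual macrophages (50,000 cells/well, DMEM), followed 1 h later by a PRR agonist, and the cells were kept at 37 °C, 5% CO2. Supernatant collected after 20 hours was read for IRF by QuantiLuc luminescence and for NF-κB by QuantiBlue absorbance at 620 nm. Reporter activity is fold change over agonist-alone wells, and a well counted as cytotoxic when its IncuCyte confluency was below 70% of agonist controls in both mask sets.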
# [2] = system: RAW-Dual; experiment: IRF Lucia reporter activity, fold change vs agonist alone; higher = enhanced IRF activity; details: agonist: MPLA (TLR4) […]
# In short: as §1
# [3] = system: RAW-Dual; experiment: IRF Lucia reporter activity, fold change vs agonist alone; cytotoxicity flag (confluency mask): not cytotoxic; higher = enhanced IRF activity
# In short: as §1
# [4] = agonist: 3'3'-cGAMP (STING) 10 ug/mL
# [5] = library stock concentration (final ~1000-fold dilution): 10 mM, cytotoxicity flag (confluency mask): cytotoxic (confluency <70% of control)
# [6] = library stock concentration (final ~1000-fold dilution): 10 mM, cytotoxicity flag (confluency mask): not cytotoxic
smiles,measurement,setting,value
CC(O)C(=O)O.CC(O)C(=O)O.CN1CCN(c2ccc3nc(-c4c(N)c5c(F)cccc5[nH]c4=O)[nH]c3c2)CC1 (library stock concentration (final ~1000-fold dilution): 10 mM),IRF Lucia reporter activity,[1]; [4],0.0211
same,IRF Lucia reporter activity,[1]; agonist: LPS (TLR4) 0.1 ug/mL,0.0308
CC(O)C(=O)O.CC(O)C(=O)O.CN1CCN(c2ccc3nc(-c4c(N)c5c(F)cccc5[nH]c4=O)[nH]c3c2)CC1,IRF Lucia reporter activity,[2]; [5],0.0738
CC(N)(Cc1ccc(O)c(O)c1)C(=O)O (stereo unspecified),IRF Lucia reporter activity,"[2]; library stock concentration (final ~1000-fold dilution): 2 mM, cytotoxicity flag (confluency mask): not cytotoxic",1.28
CC(N)(Cc1ccc(O)c(O)c1)C(=O)O (stereo unspecified) (library stock concentration (final ~1000-fold dilution): 2 mM),IRF Lucia reporter activity,[3]; [4],1
same,IRF Lucia reporter activity,[3]; agonist: LPS (TLR4) 0.1 ug/mL,0.972
COC(=O)C(CC(C)C)NC(=O)c1ccc(NCC(N)CS)cc1-c1cccc2ccccc12.O=C(O)C(F)(F)F (stereo unspecified) (library stock concentration (final ~1000-fold dilution): 10 mM),IRF Lucia reporter activity,[3]; [4],0.0714
same,IRF Lucia reporter activity,[3]; agonist: LPS (TLR4) 0.1 ug/mL,0.736
COC(=O)C(CC(C)C)NC(=O)c1ccc(NCC(N)CS)cc1-c1cccc2ccccc12.O=C(O)C(F)(F)F (stereo unspecified),IRF Lucia reporter activity,[2]; [6],0.882
Cc1ccc(/C(=C\CN2CCCC2)c2cccc(/C=C/C(=O)O)n2)cc1,IRF Lucia reporter activity,[2]; [6],1.02
Cc1ccc(/C(=C\CN2CCCC2)c2cccc(/C=C/C(=O)O)n2)cc1 (library stock concentration (final ~1000-fold dilution): 10 mM),IRF Lucia reporter activity,[3]; [4],0.962
same,IRF Lucia reporter activity,[3]; agonist: LPS (TLR4) 0.1 ug/mL,1.42
O=C(OC1OC2COC(=O)c3cc(O)c(O)c(O)c3-c3c(cc(O)c(O)c3O)C(=O)OC(C2O)C1O)c1cc(O)c(O)c(O)c1 (stereo unspecified) (library stock concentration (final ~1000-fold dilution): 10 mM),IRF Lucia reporter activity,[3]; [4],0.767
same,IRF Lucia reporter activity,[3]; agonist: LPS (TLR4) 0.1 ug/mL,0.769
O=Cc1ccc(O)c(O)c1 (library stock concentration (final ~1000-fold dilution): 10 mM),IRF Lucia reporter activity,[3]; [4],0.613
same,IRF Lucia reporter activity,[3]; agonist: LPS (TLR4) 0.1 ug/mL,1.13
COc1cc2ncc(-c3ccccc3)nc2cc1OC (library stock concentration (final ~1000-fold dilution): 10 mM),IRF Lucia reporter activity,[3]; [4],0.506
same,IRF Lucia reporter activity,[3]; agonist: LPS (TLR4) 0.1 ug/mL,0.722
COC(=O)c1sccc1S(=O)(=O)Nc1ccc(Nc2ccccc2)cc1OC (library stock concentration (final ~1000-fold dilution): 10 mM),IRF Lucia reporter activity,[3]; [4],0.918
same,IRF Lucia reporter activity,[3]; agonist: LPS (TLR4) 0.1 ug/mL,0.381
COC(=O)c1sccc1S(=O)(=O)Nc1ccc(Nc2ccccc2)cc1OC,IRF Lucia reporter activity,[2]; [6],0.834
C=CC(=O)N1CCCC(n2nc(-c3ccc(Oc4ccccc4)cc3)c(C(N)=O)c2N)C1 (stereo unspecified) (library stock concentration (final ~1000-fold dilution): 10 mM),IRF Lucia reporter activity,[3]; [4],0.185
same,IRF Lucia reporter activity,[3]; agonist: LPS (TLR4) 0.1 ug/mL,0.786
CCC1(O)C(=O)OCc2c1cc1n(c2=O)Cc2cc3cc(O)ccc3nc2-1 (stereo unspecified) (library stock concentration (final ~1000-fold dilution): 10 mM),IRF Lucia reporter activity,[3]; [4],0.975
same,IRF Lucia reporter activity,[3]; agonist: LPS (TLR4) 0.1 ug/mL,0.604
same,IRF Lucia reporter activity,[1]; [4],2.36
same,IRF Lucia reporter activity,[1]; agonist: LPS (TLR4) 0.1 ug/mL,1.76
CCC1(O)C(=O)OCc2c1cc1n(c2=O)Cc2cc3cc(O)ccc3nc2-1 (stereo unspecified),IRF Lucia reporter activity,[2]; [5],2.58
same,IRF Lucia reporter activity,[2]; [6],1.03
O=C(/C=C/c1ccc(O)c(O)c1)O[C@@H]1C[C@](OC(=O)/C=C/c2ccc(O)c(O)c2)(C(=O)O)C[C@@H](O)[C@H]1O (library stock concentration (final ~1000-fold dilution): 10 mM),IRF Lucia reporter activity,[3]; [4],0.0251
same,IRF Lucia reporter activity,[3]; agonist: LPS (TLR4) 0.1 ug/mL,0.087
CC1OC(OC2C(Oc3cc(O)c(C(=O)CCc4ccc(O)cc4)c(O)c3)OC(CO)C(O)C2O)C(O)C(O)C1O (stereo unspecified) (library stock concentration (final ~1000-fold dilution): 10 mM),IRF Lucia reporter activity,[3]; [4],0.98
same,IRF Lucia reporter activity,[3]; agonist: LPS (TLR4) 0.1 ug/mL,1.02
CC1OC(OC2C(Oc3cc(O)c(C(=O)CCc4ccc(O)cc4)c(O)c3)OC(CO)C(O)C2O)C(O)C(O)C1O (stereo unspecified),IRF Lucia reporter activity,[2]; [6],1.01
NC1=NC2(c3cc(NC(=O)c4ccc(F)cn4)ccc3F)COCC2CS1 (stereo unspecified),IRF Lucia reporter activity,[2]; [6],1.04
NC1=NC2(c3cc(NC(=O)c4ccc(F)cn4)ccc3F)COCC2CS1 (stereo unspecified) (library stock concentration (final ~1000-fold dilution): 10 mM),IRF Lucia reporter activity,[3]; [4],1.08
same,IRF Lucia reporter activity,[3]; agonist: LPS (TLR4) 0.1 ug/mL,0.998
CC(Oc1ccc2[nH]nc(/C=C/c3cnn(CCO)c3)c2c1)c1c(Cl)cncc1Cl (stereo unspecified) (library stock concentration (final ~1000-fold dilution): 10 mM),IRF Lucia reporter activity,[1]; [4],0.0195
same,IRF Lucia reporter activity,[1]; agonist: LPS (TLR4) 0.1 ug/mL,0.0156
CC(Oc1ccc2[nH]nc(/C=C/c3cnn(CCO)c3)c2c1)c1c(Cl)cncc1Cl (stereo unspecified),IRF Lucia reporter activity,[2]; [5],0.0243
O=C(Nc1ccc(O)cc1)c1ccccc1O (library stock concentration (final ~1000-fold dilution): 10 mM),IRF Lucia reporter activity,[3]; [4],0.523
same,IRF Lucia reporter activity,[3]; agonist: LPS (TLR4) 0.1 ug/mL,0.835
O=C(Nc1ccc(O)cc1)c1ccccc1O,IRF Lucia reporter activity,[2]; [6],1.02
C=CC(=O)Nc1cccc(Nc2nc(Nc3ccc(N4CCN(C(C)=O)CC4)cc3OC)ncc2C(F)(F)F)c1,IRF Lucia reporter activity,[2]; [6],0.22
C=CC(=O)Nc1cccc(Nc2nc(Nc3ccc(N4CCN(C(C)=O)CC4)cc3OC)ncc2C(F)(F)F)c1 (library stock concentration (final ~1000-fold dilution): 10 mM),IRF Lucia reporter activity,[3]; [4],0.0334
same,IRF Lucia reporter activity,[3]; agonist: LPS (TLR4) 0.1 ug/mL,0.193
